Results reported in patent US7619094B2, “Ketoamides with cyclic P4's as inhibitors of NS3 serine protease of hepatitis C virus” (Schering Corporation, priority 2004, dated 2009).

The compounds below were run against Recombinant heterodimeric HCV NS3/NS4A protease (strain 1a) (Hepatitis C virus genotype 1a, UniProt P27958) (assay: HCV continuous assay (spectrophotometric HCV NS3/NS4A serine protease inhibition assay)). Details: Table 1; ranges of Ki* values in HCV continuous assay.
Assay type: biochemical, HCV (strain 1a)
`CC(C)(C)[C@H](NC(=O)N[C@H](CN1CCCCS1(=O)=O)C1CCCCC1)C(=O)N1C[C@H]2[C@@H]([C@H]1C(=O)NC(CC1CC1)C(=O)C(N)=O)C2(C)C` (stereo partly drawn) [Compound 5231] was tested, and the Ki was no more than 50 nM. `C#CCCC(NC(=O)[C@@H]1[C@@H]2[C@H](CN1C(=O)[C@@H](NC(=O)N[C@H](CN1Cc3sccc3S1(=O)=O)C(C)(C)C)C1CCCCC1)C2(C)C)C(=O)C(=O)NCC=C` (stereo partly drawn) [Compound 5194] gave a Ki of no more than 50 nM. `C=CCNC(=O)C(=O)C(CC1CC1)NC(=O)[C@@H]1[C@@H]2[C@H](CN1C(=O)[C@@H](NC(=O)N[C@H](CN1Cc3ccccc3S1(=O)=O)C(C)(C)C)C1CCCCC1)C2(C)C` (stereo partly drawn) [Compound 5249] gave a Ki of no more than 50 nM. `C#CCCC(NC(=O)[C@@H]1[C@@H]2[C@H](CN1C(=O)[C@@H](NC(=O)N[C@H](CN1CCCCS1(=O)=O)C(C)(C)C)C(C)(C)C)C2(C)C)C(=O)C(=O)NCC=C` (stereo partly drawn) [Compound 5195] gave a Ki of no more than 50 nM. `C=CCNC(=O)C(=O)C(CCCC)NC(=O)[C@@H]1[C@@H]2[C@H](CN1C(=O)[C@@H](NC(=O)N[C@H](CN1CCCS1(=O)=O)C(C)C)C(C)(C)C)C2(C)C` (stereo partly drawn) [Compound 5111] showed a Ki of no more than 50 nM. Work on `CNC(=O)C(=O)C(CC1CC1)NC(=O)[C@@H]1[C@@H]2[C@H](CN1C(=O)[C@@H](NC(=O)N[C@H](CN1CCCS1(=O)=O)C(C)(C)C)C(C)(C)C)C2(C)C` (stereo partly drawn) [Compound 5117] yielded a Ki of no more than 50 nM. In the case of `C=CCNC(=O)C(=O)C(CC1CC1)NC(=O)[C@@H]1[C@@H]2[C@H](CN1C(=O)[C@@H](NC(=O)N[C@H](CN1CCCCS1(=O)=O)C(C)(C)C)C(C)(C)C)C2(C)C` (stereo partly drawn) [Compound 5196], the Ki is reported as no more than 50 nM. In the case of `C=CCNC(=O)C(=O)C(CC1CC1)NC(=O)[C@@H]1[C@@H]2[C@H](CN1C(=O)[C@@H](NC(=O)N[C@H](CN1CCCNS1(=O)=O)C(C)(C)C)C(C)(C)C)C2(C)C` (stereo partly drawn) [Compound 5213], the Ki is reported as greater than 50 nM. In the case of `CC(C)(C)[C@H](NC(=O)NC1(CN2Cc3sccc3S2(=O)=O)CCCCC1)C(=O)N1C[C@H]2[C@@H]([C@H]1C(=O)NC(CC1CCC1)C(=O)C(N)=O)C2(C)C` (stereo partly drawn) [Compound 5212], the Ki is reported as no more than 50 nM. In the case of `C=CCNC(=O)C(=O)C(CCC)NC(=O)[C@@H]1[C@@H]2[C@H](CN1C(=O)[C@@H](NC(=O)N[C@H](CN1CCCN(C)S1(=O)=O)C(C)(C)C)C(C)(C)C)C2(C)C` (stereo partly drawn) [Compound 5126], the Ki is reported as no more than 50 nM. Work on `C=CCNC(=O)C(=O)C(CCC)NC(=O)[C@@H]1[C@@H]2[C@H](CN1C(=O)[C@@H](NC(=O)N[C@H](CN1CCN(CC3CC3)S1(=O)=O)C(C)(C)C)C1CCCCC1)C2(C)C` (stereo partly drawn) [Compound 5198] yielded a Ki of no more than 50 nM. Work on `CNC(=O)C(=O)C(CCC(F)(F)F)NC(=O)[C@@H]1[C@@H]2[C@H](CN1C(=O)[C@@H](NC(=O)N[C@H](CN1CCCS1(=O)=O)C(C)(C)C)C(C)(C)C)C2(C)C` (stereo partly drawn) [Compound 5118] yielded a Ki of no more than 50 nM. Compound `CCCC(NC(=O)[C@@H]1[C@@H]2[C@H](CN1C(=O)[C@@H](NC(=O)N[C@H](CN1CCCS1(=O)=O)C(C)(C)C)C(C)(C)C)C2(C)C)C(=O)C(N)=O` (stereo partly drawn) [Compound 5120] has a Ki of no more than 50 nM. Work on `C=CCNC(=O)C(=O)C(CCC(F)(F)F)NC(=O)[C@@H]1[C@@H]2[C@H](CN1C(=O)[C@@H](NC(=O)N[C@H](CN1CCCS1(=O)=O)C(C)(C)C)C(C)(C)C)C2(C)C` (stereo partly drawn) [Compound 5119] yielded a Ki of no more than 50 nM. `CC(C)(C)[C@@H](CN1Cc2ccccc2S1(=O)=O)NC(=O)N[C@H](C(=O)N1C[C@H]2[C@@H]([C@H]1C(=O)NC(CC1CCC1)C(=O)C(N)=O)C2(C)C)C1CCCCC1` (stereo partly drawn) [Compound 5254] gave a Ki of no more than 50 nM. For `C=CCNC(=O)C(=O)C(CCC)NC(=O)[C@@H]1[C@@H]2[C@H](CN1C(=O)[C@@H](NC(=O)N[C@H](CN1Cc3ccccc3S1(=O)=O)C(C)(C)C)C1CCCCC1)C2(C)C` (stereo partly drawn) [Compound 5250], the Ki was no more than 50 nM.

Same assay, conditions: Table 2; ranges of Ki* values in HCV continuous assay
In the case of `C=CCNC(=O)C(=O)C(CCCC)NC(=O)[C@@H]1[C@@H]2[C@H](CN1C(=O)[C@@H](NC(=O)N[C@H](CN1CCCC1=O)C(C)(C)C)C(C)(C)C)C2(C)C` (stereo partly drawn) [Compound 5621], the Ki is reported as greater than 50 nM. `C#CCCC(NC(=O)[C@@H]1[C@@H]2[C@H](CN1C(=O)[C@@H](NC(=O)N[C@H](CN1C(=O)Cc3ccccc3C1=O)C(C)(C)C)C(C)(C)C)C2(C)C)C(=O)C(=O)NCC=C` (stereo partly drawn) [Compound 5741] was tested, and the Ki was no more than 50 nM. In the case of `CCCCC(NC(=O)[C@@H]1[C@@H]2[C@H](CN1C(=O)[C@@H](NC(=O)N[C@H](CN1C(=O)COCC1=O)C(C)(C)C)C(C)(C)C)C2(C)C)C(=O)C(N)=O` (stereo partly drawn) [Compound 5699], the Ki is reported as no more than 50 nM. `C=CCNC(=O)C(=O)C(CCCC)NC(=O)[C@@H]1[C@@H]2[C@H](CN1C(=O)[C@@H](NC(=O)N[C@H](Cn1ccccc1=O)C(C)(C)C)C(C)(C)C)C2(C)C` (stereo partly drawn) [Compound 5651] was tested, and the Ki was no more than 50 nM. `CC(C)(C)[C@H](NC(=O)N[C@H](CN1CCOC1=O)C(C)(C)C)C(=O)N1C[C@H]2[C@@H]([C@H]1C(=O)NC(CC1CC1)C(=O)C(N)=O)C2(C)C` (stereo partly drawn) [Compound 5629] gave a Ki of no more than 50 nM. In the case of `C=CCNC(=O)C(=O)C(CCC)NC(=O)[C@@H]1[C@@H]2[C@H](CN1C(=O)[C@@H](NC(=O)N[C@H](CN1CCCC1=O)C(C)(C)C)C(C)(C)C)C2(C)C` (stereo partly drawn) [Compound 5620], the Ki is reported as no more than 50 nM. Work on `CC(C)(C)[C@H](NC(=O)N[C@H](CN1CCCNC1=O)C(C)(C)C)C(=O)N1C[C@H]2[C@@H]([C@H]1C(=O)NC(CC1CCC1)C(=O)C(N)=O)C2(C)C` (mixture of isomers) [Compound 5665] yielded a Ki of no more than 50 nM. `C=CCNC(=O)C(=O)C(CCC)NC(=O)[C@@H]1[C@@H]2[C@H](CN1C(=O)[C@@H](NC(=O)N[C@H](CN1C(=O)CCCC1=O)C(C)(C)C)C1CCCCC1)C2(C)C` (stereo partly drawn) [Compound 5704] gave a Ki of no more than 50 nM. `C=CCNC(=O)C(=O)C(CC1CCC1)NC(=O)[C@@H]1[C@@H]2[C@H](CN1C(=O)[C@@H](NC(=O)N[C@H](CN1C(=O)CCCC1=O)C(C)(C)C)C(C)(C)C)C2(C)C` (stereo partly drawn) [Compound 5672] was tested, and the Ki was no more than 50 nM. Work on `C#CCCC(NC(=O)[C@@H]1[C@@H]2[C@H](CN1C(=O)[C@@H](NC(=O)N[C@H](CN1CCCCC1=O)C(C)(C)C)C(C)(C)C)C2(C)C)C(=O)C(=O)NCC=C` (stereo partly drawn) [Compound 5654] yielded a Ki of no more than 50 nM. `C=CCNC(=O)C(=O)C(CCCC)NC(=O)[C@@H]1[C@@H]2[C@H](CN1C(=O)[C@@H](NC(=O)N[C@H](CN1CCCCC1=O)C(C)C)C(C)(C)C)C2(C)C` (stereo partly drawn) [Compound 5609] gave a Ki greater than 50 nM. `C=CCNC(=O)C(=O)C(CC1CC1)NC(=O)[C@@H]1[C@@H]2[C@H](CN1C(=O)[C@@H](NC(=O)N[C@H](CN1C(=O)CCCC1=O)C(C)(C)C)C1CCCCC1)C2(C)C` (stereo partly drawn) [Compound 5708] showed a Ki of no more than 50 nM. Work on `C=CCNC(=O)C(=O)C(CCC)NC(=O)[C@@H]1[C@@H]2[C@H](CN1C(=O)[C@@H](NC(=O)N[C@H](CN1CCCN(C)C1=O)C(C)(C)C)C(C)(C)C)C2(C)C` (stereo partly drawn) [Compound 5685] yielded a Ki greater than 50 nM. `C=CCNC(=O)C(=O)C(CC1CCC1)NC(=O)[C@@H]1[C@@H]2[C@H](CN1C(=O)[C@@H](NC(=O)N[C@H](CN1C(=O)CCCC1=O)C(C)(C)C)C1CCCCC1)C2(C)C` (stereo partly drawn) [Compound 5723] gave a Ki of no more than 50 nM. Work on `C=CCNC(=O)C(=O)C(CCC)NC(=O)[C@@H]1[C@@H]2[C@H](CN1C(=O)[C@@H](NC(=O)N[C@H](CN1CCCNC1=O)C(C)(C)C)C1CCCCC1)C2(C)C` (stereo partly drawn) [Compound 5713] yielded a Ki of no more than 50 nM. With `CC(C)(C)[C@H](NC(=O)N[C@H](CN1C(=O)COCC1=O)C(C)(C)C)C(=O)N1C[C@H]2[C@@H]([C@H]1C(=O)NC(CC1CCC1)C(=O)C(N)=O)C2(C)C` (stereo partly drawn) [Compound 5697] the Ki was no more than 50 nM. For `C=CCNC(=O)C(=O)C(CC1CCC1)NC(=O)[C@@H]1[C@@H]2[C@H](CN1C(=O)[C@@H](NC(=O)N[C@H](CN1Cc3ccccc3C1=O)C(C)(C)C)C1CCCCC1)C2(C)C` (stereo partly drawn) [Compound 5769], the Ki was no more than 50 nM. In the case of `C=CCNC(=O)C(=O)C(CCC)NC(=O)[C@@H]1[C@H]2CC(C)(C)O[C@H]2CN1C(=O)[C@@H](NC(=O)N[C@H](CN1CCCCC1=O)C(C)(C)C)C1CCCCC1` (stereo partly drawn) [Compound 5778], the Ki is reported as no more than 50 nM. `CC(C)(C)[C@H](NC(=O)N[C@H](CN1C(=O)COCC1=O)C(C)(C)C)C(=O)N1C[C@H]2[C@@H]([C@H]1C(=O)NC(CC1CC1)C(=O)C(N)=O)C2(C)C` (stereo partly drawn) [Compound 5701] gave a Ki of no more than 50 nM. With `C=CCNC(=O)C(=O)C(CC1CC1)NC(=O)[C@@H]1[C@@H]2[C@H](CN1C(=O)[C@@H](NC(=O)N[C@H](CN1C(=O)c3ccncc3C1=O)C(C)(C)C)C(C)(C)C)C2(C)C` (stereo partly drawn) [Compound 5658] the Ki was no more than 50 nM. In the case of `CC(C)(C)[C@@H](CN1C(=O)CCCC1=O)NC(=O)N[C@H](C(=O)N1C[C@H]2[C@@H]([C@H]1C(=O)NC(CC1CCC1)C(=O)C(N)=O)C2(C)C)C1CCCCC1` (stereo partly drawn) [Compound 5709], the Ki is reported as no more than 50 nM. For `CC(C)(C)[C@H](NC(=O)N[C@H](CN1CCCCC1=O)C(C)(C)C)C(=O)N1C[C@H]2[C@@H]([C@H]1C(=O)NC(CC1CC1)C(=O)C(N)=O)C2(C)C` (stereo partly drawn) [Compound 5643], the Ki was no more than 50 nM. `C=CCNC(=O)C(=O)C(CCC)NC(=O)[C@@H]1[C@@H]2[C@H](CN1C(=O)[C@@H](NC(=O)N[C@H](CN1C(=O)CC(C)(C)CC1=O)C(C)(C)C)C1(C)CCCCC1)C2(C)C` (stereo partly drawn) [Compound 5801] showed a Ki of no more than 50 nM. For `C=CCNC(=O)C(=O)C(CCCC)NC(=O)[C@@H]1[C@@H]2[C@H](CN1C(=O)[C@@H](NC(=O)N[C@H](CN1CCCN(C)C1=O)C(C)(C)C)C(C)(C)C)C2(C)C` (stereo partly drawn) [Compound 5683], the Ki was greater than 50 nM. `CNC(=O)C(=O)C(CC1CC1)NC(=O)[C@@H]1[C@@H]2[C@H](CN1C(=O)[C@@H](NC(=O)N[C@H](CN1C(=O)c3ccccc3C1=O)C(C)(C)C)C(C)(C)C)C2(C)C` (stereo partly drawn) [Compound 5635] gave a Ki of no more than 50 nM. Work on `C=CCNC(=O)C(=O)C(CCCC)NC(=O)[C@@H]1[C@@H]2[C@H](CN1C(=O)[C@@H](NC(=O)N[C@H](CN1C(=O)COCC1=O)C(C)(C)C)C(C)(C)C)C2(C)C` (stereo partly drawn) [Compound 5690] yielded a Ki of no more than 50 nM. For `C=CCNC(=O)C(=O)C(CCC)NC(=O)[C@@H]1[C@@H]2[C@H](CN1C(=O)[C@@H](NC(=O)N[C@H](CN1Cc3ccccc3CC1=O)C(C)(C)C)C(C)(C)C)C2(C)C` (stereo partly drawn) [Compound 5707], the Ki was no more than 50 nM. For `C=CCNC(=O)C(=O)C(CCCC)NC(=O)[C@@H]1[C@@H]2[C@H](CN1C(=O)[C@@H](NC(=O)N[C@H](CN1CCCCC1=O)C(C)(C)C)C1Cc3ccccc3C1)C2(C)C` (stereo partly drawn) [Compound 5725], the Ki was no more than 50 nM. `C=CCNC(=O)C(=O)C(CCCC)NC(=O)[C@@H]1[C@@H]2[C@H](CN1C(=O)[C@@H](NC(=O)N[C@H](CN1CCOC1=O)C(C)C)C(C)(C)C)C2(C)C` (stereo partly drawn) [Compound 5617] was tested, and the Ki was no more than 50 nM.
